# Reference: the RNAGym collection of RNA variant scans (doi:10.1073/pnas.2313332121)
# This sample is rich in variants without activity.
# B1: TPR 5TU (parent)
# chain: GGAUCUUCUCGAUCUAACAAAAAAGACAAAUCUGCCACAAAGCUUGAGAGCAUCUUCGGAUGCAGAGGCGGCAGCCUUCGGUGGCGCGAUAGCGCCAACGUUCUCAACUAUGACACGCAAAACGCGUGCUCCGUUGAAUGGAGUUUAUCAUG
# Variants of: B1
# Assay: polymerase ribozyme fitness, log enrichment relative to wild type (log ratio); higher = more active; in vitro selection for triplet polymerase activity
# Method in brief: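 For each subunit of a heterodimeric triplet polymerase ribozyme, a mutant library was built by PCR and transcribed, then taken through a single in vitro selection round in triplicate. Selection involved annealing to a biotinylated primer, the partner subunit and triplets, incubation frozen at −7 °C, gel excision of extended constructs, capture on streptavidin beads and RT-PCR. Genotypes were retained after Illumina sequencing of inputs and outputs only with ≥10 input reads and ≥1 read in each output. Fitness is defined as the logarithm of a genotype's enrichment relative to wild-type enrichment, using inverse-variance-weighted averages across replicates, with the logarithm taken to base 2.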
row,Variant,polymerase ribozyme fitness (log ratio)
1,A60U U78C C87U A98C U104C C114G A115G U139G,≤ -4.2
2,G59A C87G G140C,≤ -4.2
3,A60U U130G G143C,≤ -4.2
4,U61G G67U U90A A120G,≤ -4.2
5,A60C C63U U77C G128U A150G G152A,≤ -4.2
6,A64G G70A C85U,≤ -4.2
7,G59U U61A A89U C95G C103G C105U C114U G136U,≤ -4.2
8,A60G U78C C87A A115U U134G A147C,≤ -4.2
9,G59C C95A C99G,≤ -4.2
10,A60U G88U A89U C96U U102G C132U,≤ -4.2
11,A60G U78A A106G C118U,≤ -4.2
12,A60U G68A A147C,≤ -4.2
13,U61G G80A C93G,≤ -4.2
14,G62A G117A U134C A150G,≤ -4.2
15,G59U G68C C85A,≤ -4.2
16,A60G G84U G86A G128U A138G,≤ -4.2
17,G58U G128U,-3.02
18,U61A C85U,-1.28
19,G62A A91G C99A U127G,≤ -4.2
20,C63U G86A,-2.99
21,G59A G94A A150C,≤ -4.2
22,A60G G71U G88U C95U C105U C125G,≤ -4.2
23,U61A C96A G126A C131U,-2.54
24,U61G G62C C76A C87G G140C,≤ -4.2

row,Variant,polymerase ribozyme fitness (log ratio)
1,G58C U144C,0.128
2,A60C U61A C85G C93A A120C,≤ -4.2
3,U61G G74U G83A,≤ -4.2
4,G58C C87A,≤ -4.2
5,G58C C87U,-1.59
6,A60G U102A U109G A115C,-3.77
7,G59A G86U A119U G140U,-3.26
8,U61A U82G G133U U148A,≤ -4.2
9,G58C C103U U139C,≤ -4.2
10,A64C C96U C103G U109A U135G G136U,≤ -4.2
11,G59U A91U G141A,≤ -4.2
12,G59C A119C,-0.18
13,A60C G81C C85U A107C U135G,≤ -4.2
14,G58U G68A G94A U111C U127A,≤ -4.2
15,A64G G68A G92U C93G G140A U144A,≤ -4.2
16,G59C U61G C96G C105U A115U A150U,≤ -4.2
17,A60U A91U C96A C103A A115U,≤ -4.2
18,A64U A110G,≤ -4.2
19,G62C C85A C87G G117A,≤ -4.2
20,U61C G67U U77G,≤ -4.2
21,G59C G86U U104G U135G U145A,≤ -4.2
22,A60C U61A C87A U104A A147U,≤ -4.2
23,A64C C69U G84A G136U G141U,≤ -4.2
24,G58U C85A C95A,≤ -4.2

row,Variant,polymerase ribozyme fitness (log ratio)
1,G58C C69G A91U U102G A142C,≤ -4.2
2,A60G G94A,0.0761
3,A60C C75U A91U G141A U146A,≤ -4.2
4,A60U A106G,-0.0172
5,U61A G67A C87U A107U,≤ -4.2
6,A60G C75A G83C G117U,≤ -4.2
7,U61A G84A,-1.38
8,C63G G65C,≤ -4.2
9,G58U G100U,≤ -4.2
10,G59U C75A C87G G88A C103U A121U,≤ -4.2
11,G58C G92A A106U U127C G133A,≤ -4.2
12,U61G C63G G74U A91G C118A,≤ -4.2
13,G59U C87A C103U U104G A107U U144A,≤ -4.2
14,A64C G71A A107G G141C,≤ -4.2
15,G59C G94C G128A C132A G133C,≤ -4.2
16,G58U A64G G68A,≤ -4.2
17,G59A C87G,≤ -4.2
18,G59A C87A,≤ -4.2
19,G59C C96U U146A,0.268
20,A60G C87G,≤ -4.2
21,U61A C129U,-3.55
22,G58U U82A A142G,-0.998
23,A64G G83U C118A A138G,≤ -4.2
24,A64C G65A G84U C116G U139C,≤ -4.2

row,Variant,polymerase ribozyme fitness (log ratio)
1,G59A C99A G140U,-3.99
2,G58C C103A U145G,-1.84
3,G62C C114G A119C C125G,≤ -4.2
4,C63G G65C C93G A137C A142U,≤ -4.2
5,C63U G71A C85G G100U,≤ -4.2
6,C63U G81C U104G C105G,≤ -4.2
7,G59C C76A C96U A106G A119U G140C,≤ -4.2
8,U61A C95U,-0.916
9,U61G C75U C114U A119U G143U,≤ -4.2
10,G58C U77A A120U A122G,≤ -4.2
11,G59A A91G G100A C131A U135G,≤ -4.2
12,G59A U90G A97U U135G G136A,≤ -4.2
13,C63G C75G G133A,≤ -4.2
14,G59C C69A G133C,-1.75
15,G59A A60G,-0.0653
16,G59U C93A G152U,≤ -4.2
17,G62U G124C,-1.42
18,G58U G81A C93A C103G A137G,≤ -4.2
19,G59C G126A,0.0741
20,A60U C85U A91G C132U,≤ -4.2
21,G59U G68U A97G U144A,≤ -4.2
22,A60U U61A C69G C96U,≤ -4.2
23,U61G C95U G100A A150U,≤ -4.2
24,U61A C79G,≤ -4.2

row,Variant,polymerase ribozyme fitness (log ratio)
1,C63U U148C,-1.65
2,G59A G86A G143U U151G,≤ -4.2
3,G58C G94C,-0.872
4,A60U C87G G141A,≤ -4.2
5,G58C C116U U134C G141A U151G,≤ -4.2
6,A60C G71A C85A G143C,≤ -4.2
7,U61G U148A,≤ -4.2
8,A60C C69U C93U C114U U135A G140A,≤ -4.2
9,A60G C72U G88U,≤ -4.2
10,G58C G86A C123A G124C C125G A138C,≤ -4.2
11,G58C C87A A106G,≤ -4.2
12,G59C C63U A138U G141A,≤ -4.2
13,G59U C76U C105A A113U C116U,≤ -4.2
14,U61A A73U A138U,≤ -4.2
15,A60G G81A A97U C99U,-1.35
16,U61G C75G G88U A89U U101A G140C,≤ -4.2
17,C63U U90G C95G A121U G126A,≤ -4.2
18,A60G G67U C93U C99U C129U,≤ -4.2
19,G59A A115G G140A,≤ -4.2
20,G58C G84A G112U,≤ -4.2
21,G62A C85G C131G,≤ -4.2
22,A60G G84A C118A,-0.875
23,G58U U77A C118U,≤ -4.2
24,A60U G65U G140A,≤ -4.2

row,Variant,polymerase ribozyme fitness (log ratio)
1,A64C C85G A137U,≤ -4.2
2,G59A G84U C93G C95U C108G,≤ -4.2
3,G58C C75U G86A C105A,≤ -4.2
4,G59A G71C C85U G136A G143C U148G,≤ -4.2
5,U61C G86C U135A,≤ -4.2
6,A60G G80C G140A G141U,≤ -4.2
7,A64G C75G G80C G81U C95U A98U C108U,≤ -4.2
8,G62A G140A,-3.95
9,A64U G67C A73G A122U,≤ -4.2
10,C63A G67C C75U C85A,≤ -4.2
11,C63U A73U U109C A122G A142G,≤ -4.2
12,C63G A91G,-2.57
13,G59C C85G C95U C116A,-2.38
14,G62U G67U G71C A98G C99G C105U,≤ -4.2
15,G62C C76U G84A A120U G140C,≤ -4.2
16,G59A C79U,-3.86
17,G59U G74U C75A G88C,≤ -4.2
18,A60U G94A U135G U139C,≤ -4.2
19,G59A G62U C85U A91C,≤ -4.2
20,G59U C99U C132U,-1.59
21,A64G A91G C123G,≤ -4.2
22,C63A C87A A91G,≤ -4.2
23,C63A A64C,-1.46
24,U61A G67A A106G,≤ -4.2

row,Variant,polymerase ribozyme fitness (log ratio)
1,G59C U61A A64G G70C A107C A110U A113U,≤ -4.2
2,G59A A60G C85U C118G A122C U127G,≤ -4.2
3,A64U C87U A98G,≤ -4.2
4,C63G C72A U90C,≤ -4.2
5,G58C G59C C96U C131A,-4.15
6,G59C G86C C118A,-2.85
7,A60U C132U,-0.719
8,A60C C108G C123A A142G,≤ -4.2
9,A60G C105G U145G,-1.64
10,G59U A91U C95U G140U,≤ -4.2
11,U61A A73C,-3.91
12,U61G C75A C87G A113U A119C C149U,≤ -4.2
13,A64G G71C G141A,≤ -4.2
14,G58C C93U,-1.71
15,A64G G67C G84U G124U U148C,≤ -4.2
16,G58C C75U G88C C93G C105A G140U G141U,≤ -4.2
17,G58C C63U C95G,-2.14
18,G62U G94U C96U,-3.88
19,G59C U77G,≤ -4.2
20,U61A C96G G117A,-2.2
21,G62U G68C U90C,≤ -4.2
22,G58U U151C,≤ -4.2
23,C63G G88A,≤ -4.2
